# The source gives no read counts; variants with many changes may rest on few reads.
# B1: LINE1-mini (parent)
# chain: GGCAGAGCUCAACACAGCGUGGCAAAGUGGCUGUGGCUAGACUGCC
# Variants of: B1
# Experiment: self-cleavage, relative activity (ratio to wild type); higher = more cleavage; in vitro, sequencing; the parent is a self-cleaving ribozyme
row,Variant,self-cleavage
1,C10A A11U C13U C31U U43A G44A,0
2,C10A A25C C42U,0.04
3,C10A A16C U38A,0.08
4,C10A A41U C46G,0
5,C10A A41C G44U C45G,0.05
6,C10A A11U G35U G36C,0.04
7,C10A C13U C18A A26U C37U,0.01
8,C10A A14C U32G U38G A41C,0.01
9,C10A A16C C18A U34A,0.04
10,U9G G21U U28C G33A G36U U43A,0.01
11,U9G G17U G44A,0.06
12,C10A A24U U43A,0.01
13,C10A A11U C18A C23A A25G U34C C42U,0
14,U9G U20G G33A,0.01
15,U9G G21C G29C G44A,0.05
16,C10A A12C U20A G27A,0.04
17,C10A A12G G17A,0.02
18,C10A C18G G35U G40U,0.05
19,C10A A11C U28C G29C,0.01
20,C10A C13A U28C G36C,0.01
21,U9G G35A G44U,0.04
22,C10A C13A U32G U34C U38C,0
23,C10A A12C A14U A24G,0.01
24,C10A A14C U28C C42U C45G,0.01

row,Variant,self-cleavage
1,C10A A11U C15U C31G A39G,0.02
2,C10A A14C C15U G17U U43A,0.01
3,C10A A16G G19U G22U G40C,0
4,C10A C15A G29U G36U,0
5,C10A A11U G22U A24G G33U,0.02
6,C10A A11C C18U C31A,0.01
7,C10A A25G U28C C42G,0.01
8,C10A C15G G21C A26U,0.03
9,U9G G40C G44U,0.02
10,C10A A26C U38C,0.13
11,C10A A41G G44C,0.01
12,C10A A24G G27U,0.08
13,C10A A11U G35U C42A,0
14,C10A C13U A24C A26U G27U,0.01
15,U9G G21C G22A C37U A41C C46U,0.01
16,U9G G22U U34A G36A G40U,0.01
17,C10A A11U C15U G30A,0.02
18,C10A A12G G21C G27C C31U U43C,0.01
19,C10A C18A A25U G30A C31U,0.02
20,C10A C13U G29A,0.02
21,C10A A26U U28G C45U,0.01
22,U9G U20C U28A C37U,0.02
23,C10A C15A U34G G35C G36C C42A,0.01
24,C10A C15A G29U C31G,0.03

row,Variant,self-cleavage
1,C10A A26C G33U,0
2,C10A A26C C46A,0.03
3,U9G U20C G22U G40A,0.01
4,U9G G27U U32G,0.09
5,U9G G17U U32A C42U,0.03
6,C10A C15G G21C G29U,0.02
7,C10A A14G C37A,0.01
8,U9G U28G G29C G30A,0.04
9,C10A C15A A16C C18U A25G,0.02
10,U9G U28C G29U G33A,0.05
11,U9G G33C C42G,0.01
12,C10A A26G G27C,0.13
13,U9G G17A G44A,0.06
14,C10A A25G U43C,0.01
15,C10A C15A C31U A39C,0.02
16,C10A A24U A25C U32A G40C,0
17,C10A A14C G35A G36U A41C,0
18,C10A C13U G33U G44U,0.02
19,C10A C18A G40A G44U,0
20,C10A C13U A24C C37U,0.01
21,C10A A25C G27A,0.03
22,C10A A14G U32G U34A U38A,0.01
23,U9G G21C C31U C46U,0.02
24,C10A A14G A25U C42G,0.01

row,Variant,self-cleavage
1,C10A A12C G17A C37A,0.02
2,C10A C18A A24U A26U G33U C37A,0.01
3,C10A A12G U20C U38C,0.01
4,C10A A11U U28A G33A G35U C37U,0.01
5,C10A A16C G44C,0.04
6,C10A A24C U28G G36U C37A,0
7,U9G U34A G40A C42A,0.02
8,C10A A24C A41G,0.11
9,C10A A12C G29A C31U,0.02
10,C10A C15A C23G C31U,0
11,U9G G35A G36C,0.04
12,U9G U28A C37A A39C,0.02
13,C10A A24G C31G,0.06
14,C10A A11C G21U,0.01
15,C10A A12C A16G G19U A24C G27C,0
16,C10A A14U A25C G27C,0
17,C10A C13G G36U,0.01
18,C10A C13G G36C,0.03
19,C10A A12C C18U G22A,0.01
20,U9G G21A U38A C46A,0.06
21,C10A A16U G21U C37A,0.06
22,U9G G21A G22A C23U,0.1
23,C10A C18G G30U U43C,0.01
24,C10A C18G G35U C37U C45A,0.01

row,Variant,self-cleavage
1,C10A A16G U32G C45G,0
2,C10A A11G U43A,0.02
3,C10A A11G A25U G27C,0
4,U9G G19U A39G,0.05
5,C10A A11G C18A,0.01
6,C10A A11G C18G,0.02
7,C10A C18A A25G G33A G40A,0.03
8,C10A A11G G21C G27U A41C G44U,0.01
9,C10A C15A C23G C42G,0.01
10,C10A C15G G30A G33U,0.03
11,C10A A25U A26U,0.03
12,U9G G36U C42U,0.13
13,C10A C13U U20G,0.02
14,C10A A16C U28C G44C,0.01
15,U9G G27C G33A G36U,0.03
16,C10A C18A G27A,0.11
17,U9G U20C C31U C37A,0
18,C10A A12G U20C C23G,0
19,C10A C18A A24C G40A,0.02
20,C10A A12U G21U C23G G35A,0.01
21,C10A C18G A25G,0
22,C10A A11C G33U,0.02
23,U9G G19A G36C,0.04
24,C10A C15A G21U G29C A41C,0

row,Variant,self-cleavage
1,C10A C13G G17U C42G C46U,0.06
2,C10A A24G A41C C45U,0
3,C10A A14C U32C G33U A41U,0.01
4,U9G G21U A39G,0.02
5,C10A C13A G36C,0.02
6,C10A C13A C18U G22A U43C,0
7,C10A A12G A14U C37A,0.04
8,U9G G21A A39C C42U,0.38
9,C10A A14U U38C,0.03
10,U9G G17A U43A,0.06
11,C10A A11G A26C A41C,0.02
12,U9G G22C G29A A39U,0.05
13,C10A A16U G30A C46A,0.02
14,C10A A25U G27U U32G,0.03
15,C10A C13G U20A,0.05
16,C10A C13G U20C,0.02
17,C10A C18G A41C,0.04
18,C10A A12U C31A,0.03
19,U9G U28G C37G,0.01
20,C10A C18G C31A,0.02
21,C10A C13G C15G G17U,0.04
22,U9G G29A G33C,0.03
23,U9G G29U G30A,0.11
24,C10A A14U U20C G36U U38C,0.05

row,Variant,self-cleavage
1,U9G U43G G44C C45G,0.04
2,C10A A24U G33C,0.05
3,U9G U20A C31U G44U,0
4,U9G U20A G22A U28A,0.06
5,C10A A14C C15U A16U U28C,0.04
6,C10A A14G G21U A25C G35U,0.02
7,C10A A16C A26U U32G,0.01
8,C10A C13A G44C,0.01
9,U9G G17U G36A,0.03
10,U9G G21C G40A C46A,0.1
11,U9G U34G C42U,0.03
12,C10A C13U G35A G36U,0.01
13,U9G G21C C42A,0.09
14,C10A A25U G36C,0.02
15,U9G G19A U20G G29A U38G C42U,0.02
16,C10A A12G G36U,0.01
17,C10A A12G C15U A16C,0.02
18,C10A A12C C13U C37A,0.02
19,C10A C13A A39C A41C,0.01
20,C10A A12U A24U,0.03
21,U9G G29C G30C U43A,0
22,C10A C15A A26G A39G G44C,0.02
23,C10A A11U G33U C37A C45U,0.01
